Data published in PubChem BioAssay AID686978 (National Center for Advancing Translational Sciences (NCATS), 2013).
Where “and” joins values, the source holds several entries; their conditions need not be identical. Equal entries are not always repeated. Hit rate of the full screen: of about 420,000 compounds, about 64,000 (15%) were called active. The inconclusive results got no clear call from the source; some entries with a clear call stand among them for comparison. The call rests on the fitted dose curve; in most records, active means well fitted inhibition curve with a large enough effect; inconclusive means small, poorly fitted or top-dose-only effect; inactive means flat fitted curve, though single readings scatter. Potencies of inconclusive entries are doubtful fits and often do not repeat.

Experiment: qHTS for Inhibitors of human tyrosyl-DNA phosphodiesterase 1 (TDP1): qHTS in cells in absence of CPT; further: nearly all actives have a fitted effect of over 55% in size
Conditions: DT40 Tdp1-/- hTDP1 cells, no CPT, ATP luminescence, 48 h; activity change, negative = growth inhibition: at 46.2 µM (top of the series)
Summary of the method: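 Growth kinetics read by CellTiter-Glo luminescence after ≥48 hr at 37 °C. Cells: DT40 Tdp1-/- stably carrying human TDP1, 400 per well, compound exposure in the absence of CPT (DMSO vehicle).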
On the % scale 0 is the no-effect control and ±100 the full control effect; potency means the concentration at half of the fitted maximal effect; tags describe the fitted curve by direction and shape.

Structure (SMILES)	Potency	activity change, negative = growth inhibition
O=C(Nc1ccc(Oc2cccnc2)cc1)C1CCN(Cc2ccccc2F)CC1	inconclusive: 20.6 µM [inhibitor, single point]	–
CC(C)(C)c1ccc(-c2nnc(SC3CCOC3=O)n2Cc2ccccc2)cc1 (stereo unspecified)	inconclusive: 29.1 µM [inhibitor, single point]	–
Cc1cc(C)n2nc(SCC(=O)N3CCCC3)nc2n1	–	inactive: -16.7%
O=C(NCc1ccncc1)c1cccc(Cn2cc(Br)cn2)c1	inconclusive: 11.6 µM [inhibitor, partial curve]	–
O=C(CSc1oc(-c2ccc(F)cc2)nc1S(=O)(=O)c1ccccc1)NC1CCCCC1	inconclusive: 23.1 µM [inhibitor, single point]	–
COc1cc2c(cc1NC(=O)c1ccccc1C)n(C)c(=O)n2C	inconclusive: 29.1 µM [inhibitor, single point]	–
Cn1c(=O)c2[nH]c(CN3CCN(Cc4ccccc4)CC3)nc2n(C)c1=O	–	inactive: -14.1%
COC(=O)c1c(NC(=O)C2c3ccccc3Oc3ccccc32)sc2c1CCC(C(C)(C)C)C2 (stereo unspecified)	inconclusive: 18.4 µM [inhibitor, partial curve]	–
O=C(Nc1ccc(C(=O)N2CCCCC2)cc1)c1cccc([N+](=O)[O-])c1	inconclusive: 29.1 µM [inhibitor, single point]	–
Cc1ccc(S(=O)(=O)N(C)CC(=O)N(CC(C)C)C2CCS(=O)(=O)C2)cc1 (stereo unspecified)	–	inactive: 0.223%
COc1cccc(-c2csc(N3CCN(C(=S)Nc4ccccc4)CC3)n2)c1	inconclusive: 29.1 µM [inhibitor, single point]	–
CCSc1nnc(NC(=O)[C@@H](NC(=O)c2ccc(C(C)(C)C)cc2)C(C)C)s1	active: 20.6 µM	–
Cc1c(C(C)(C)O)[nH]c2ccc(C(F)(F)F)cc12	inconclusive: 14.6 µM [inhibitor, single point]	–
COc1ccc(-c2cc(=O)c3c(O)c(OC)c(OC)c(OC)c3o2)cc1	inconclusive: 5.17 µM [inhibitor, single point] and inconclusive: 14.6 µM [inhibitor, partial curve]	–
CN1C(=O)c2ccc(C(=O)Nc3ccc(Br)cn3)cc2C1=O	–	inactive: 12.5%
COc1ccc(-c2cc3cc(OC)c(OC)cc3cn2)cc1	inconclusive: 20.6 µM [inhibitor, single point]	–
O=C(NCc1ccco1)c1cccnc1Cl	–	inactive: 4.81%
Cc1ccc2c(C)c(C(=O)N3CCN(c4ncccn4)CC3)oc2c1C	active: 16.4 µM	–
CC(C)(C)c1ccc(C(=O)NNc2ncccc2-n2cccc2)cc1	active: 13 µM	–
COc1ccc(-c2nnc(SCC(=O)Nc3c(C)cccc3C)nc2-c2ccc(OC)cc2)cc1	active: 1.84 µM	–
CCOC(=O)c1c(NC(=O)c2ccc(S(=O)(=O)N(C)CC3CCCO3)cc2)sc2c1CCN(C)C2 (stereo unspecified)	inconclusive: 29.1 µM [inhibitor, single point]	–
CC1CCCCC1NC(=O)NC(=O)CCl (stereo unspecified)	active: 5.17 µM	–
O=C(Cn1c(=O)oc2ccccc21)Nc1ccccc1C(F)(F)F	active: 6.51 µM	–
COCCCNC(=O)/C(C#N)=C/c1c(N2CCCCCC2)nc2ccccn2c1=O	–	inactive: -24.2%

Structure (SMILES)	Potency	activity change, negative = growth inhibition
OC(COc1ccc2ccccc2c1)Cn1cncn1 (stereo unspecified)	–	inconclusive: -25.5% [inhibitor]
CCOC(=O)c1ccc(NC(=O)c2oc3c(c2C)-c2nn(Cc4ccccc4Cl)cc2CC3)cc1	active: 20.6 µM	–
CC(CCc1ccccc1)NC(=O)Cn1ncc2c3ccccc3n(Cc3ccccc3)c2c1=O (stereo unspecified)	inconclusive: 1.03 µM [inhibitor, full curve, poor fit]	–
COc1ccc(N2CC(C(=O)N3CCC4(CC3)CC(=O)c3ccccc3O4)CC2=O)cc1 (stereo unspecified)	inconclusive: 14.6 µM [inhibitor, partial curve, poor fit]	–
O=C(CCN1C(=O)c2ccccc2Sc2ncccc21)Nc1ccc(F)cc1	inconclusive: 25.9 µM [inhibitor, single point]	–
O=C(Cn1c[n+](CC(=O)c2ccc([N+](=O)[O-])cc2)cn1)c1ccc([N+](=O)[O-])cc1	active: 20.6 µM	–
O=C(NCC1CCCN1S(=O)(=O)c1cccs1)C(=O)Nc1ccccc1Cl (stereo unspecified)	inconclusive: 16.4 µM [inhibitor, single point]	–
Cc1cccc(NC(=O)CSC2=NN3CCCC(=O)N=C3S2)c1C	inconclusive: 32.6 µM [inhibitor, partial curve]	–
CCCCOc1ccccc1C1CC(=O)Nc2cc(C)c(C)cc21 (stereo unspecified)	active: 18.4 µM	–
CCCCCCn1c(=O)[nH]c2c(c1=O)CCC2	–	inactive: 1.46%
CCc1nonc1NC(=O)c1oc2c(C)c(C)ccc2c1C	inconclusive: 11.6 µM [inhibitor, partial curve]	–
Cc1ccc(NC(=O)c2cccc(S(=O)(=O)N(C)C3CCCCC3)c2)nc1	inconclusive: 18.4 µM [inhibitor, single point]	–
CC(/C=C/c1ccccc1)=N\Nc1nc(C)cc(C)n1	active: 5.17 µM	–
Cc1ccc(CCNC(=O)C2CCCN2S(=O)(=O)c2ccc3c(c2)CCC(=O)N3)cc1 (stereo unspecified)	inconclusive: 9.2 µM [inhibitor, partial curve]	–
Cc1nc(SCC(=O)Nc2ccc(C)c(Cl)c2)cc(-c2ccccc2)n1	inconclusive: 18.4 µM [inhibitor, single point]	–
CCOc1ccc(C(=O)Oc2c(Sc3ccccc3)c(C)nn2C(C)(C)C)cc1OCC	inconclusive: 29.1 µM [inhibitor, single point]	–
O=C1CSCN1c1cc(Cl)ccc1Cl	–	inactive: -19.7%
COc1ccc(Cl)cc1Nc1ncnc2sc(C)c(S(=O)(=O)N3CCC(C)CC3)c12	inconclusive: 29.1 µM [inhibitor, single point]	–
CCc1ccc2occ(CC(=O)Nc3ccc(OC)c(Cl)c3)c2c1	inconclusive: 16.4 µM [inhibitor, single point]	–
Cc1nn2c3ccccc3n(CC(=O)c3cccs3)c2nc1=O	–	inactive: 2.76%
Cc1nc(NCc2ccccc2)c2cc[nH]c2n1	active: 11.6 µM	–
O=C(c1cccc(S(=O)(=O)N2CCCC2)c1)N1CCN(c2ccccc2F)CC1	inconclusive: 32.6 µM [inhibitor, single point]	–
Cc1ccc(S(=O)(=O)CCC(=O)OCC(=O)NC(=O)c2ccccc2)cc1	–	inactive: -0.721%
CC(=O)c1ccc(NC(=O)Nc2sc3nc4n(c(=O)c3c2C)CCC(C)CC4)cc1 (stereo unspecified)	active: 8.2 µM	–

Structure (SMILES)	Potency	activity change, negative = growth inhibition
CCC(c1nnnn1-c1ccc2c(c1)OCCO2)N1CCN(c2ccc(F)cc2)CC1 (stereo unspecified)	active: 16.4 µM	–
CC(C)c1ccc(Nc2nnc(SCC(=O)Nc3ncc(S(=O)(=O)c4ccc([N+](=O)[O-])cc4)s3)s2)cc1	inconclusive: 16.4 µM [inhibitor, single point]	–
Cc1ccc(-n2c(SCC(=O)NCCN3C(=O)CSC3=O)nnc2-c2ccccc2F)cc1	–	inactive: -23.6%
O=C(NCc1ccccc1)C1c2ccccc2OCC(=O)N1CCc1c[nH]c2ccccc12 (stereo unspecified)	inconclusive: 14.6 µM [inhibitor, partial curve]	–
O=C(CNC(=O)c1ccc(Br)o1)Nc1ccccc1	–	inactive: 22.8%
CCc1cccc(NC(=S)N(CCOC)C(C)c2ccco2)c1 (stereo unspecified)	inconclusive: 29.1 µM [inhibitor, single point]	–
CCn1c(SCC(=O)Nc2ccc3c(c2)OCO3)nc2c(c1=O)SC(C)C2 (stereo unspecified)	inconclusive: 23.1 µM [inhibitor, single point]	–
N#C/C(=C/c1ccc(N2CCCCCC2)o1)c1cccc(F)c1	active: 20.6 µM	–
COc1ccc(-c2cc(-c3ccc(Cl)cc3)n[nH]2)c(O)c1	–	inconclusive: -34.2% [inhibitor]
Cc1ccc(S(=O)(=O)Nc2ccc(-c3ccc4nncn4n3)cc2)cc1	inconclusive: 18.4 µM [inhibitor, partial curve]	–
COc1ccc(CCN(C)CC(O)COc2c(C)ccc(C)c2C)cc1OC (stereo unspecified)	inconclusive: 16.4 µM [inhibitor, single point]	–
CCCCN(CCCC)Cc1cc(=O)oc2ccc3ccccc3c12	active: 16.4 µM	–
COCCNC(=O)C(c1ccc(C)cc1)N(Cc1ccco1)C(=O)CCC(=O)Nc1ccccn1 (stereo unspecified)	–	inactive: -22.9%
N#CCC(=O)N/N=C/c1ccc(N2N=C(c3ccccc3)CC2c2ccccc2)cc1 (stereo unspecified)	active: 18.4 µM	–
Cc1ccc2sc(N(CCCN(C)C)C(=O)c3ccc(S(=O)(=O)N4CCOCC4)cc3)nc2c1C	inconclusive: 16.4 µM [inhibitor, single point]	–
CC1=NN2C(=N)/C(=C\c3cc(C)n(-c4ccccc4)c3C)C(=O)N=C2S1	–	inactive: -6.8%
CC(=O)Nc1ccc(NC(=O)c2c(-c3ccccc3)noc2C)cn1	–	inactive: 4.72%
NC(=O)c1c(NC(=O)CN2CCN(S(=O)(=O)c3ccccc3)CC2)sc2c1CCC2	active: 18.4 µM	–
Cc1ccc(S(=O)(=O)NCCC(=O)OCC(=O)N(Cc2ccccc2)C(C)(C)C)cc1C	inconclusive: 23.1 µM [inhibitor, single point]	–
Cc1ccc(NC(=O)Cc2ccccc2F)cc1S(=O)(=O)N1CCCCCC1	inconclusive: 29.1 µM [inhibitor, single point]	–
Nc1c(C(=O)NCc2ccco2)c2nc3ccccc3nc2n1CCc1ccccc1	inconclusive: 23.1 µM [inhibitor, single point]	–
COc1ccccc1N1CCN(S(=O)(=O)c2ccc(F)c(C(=O)Nc3ccc(Cl)cc3C(F)(F)F)c2)CC1	active: 20.6 µM	–
COc1ccc2oc(C(=O)OCC(=O)N3CCN(S(=O)(=O)c4ccccc4)CC3)c(C)c2c1	inconclusive: 29.1 µM [inhibitor, single point]	–
